Experimental data from paper PMC4336329 (PLoS ONE, 2015).
Screen size: about 310,000 compounds; about 2,200 (0.71%) showed an effect of 50% or more. The effect is printed as a negative number. This is one part of the list.

Each compound was assayed against human ether-à-go-go-related gene (hERG) potassium channel (human, UniProt Q12809) (assay: primary screen, population patch clamp on CHO cells stably expressing hERG).
Chain of human ether-à-go-go-related gene (hERG) potassium channel (Q12809 whole entry, looked up): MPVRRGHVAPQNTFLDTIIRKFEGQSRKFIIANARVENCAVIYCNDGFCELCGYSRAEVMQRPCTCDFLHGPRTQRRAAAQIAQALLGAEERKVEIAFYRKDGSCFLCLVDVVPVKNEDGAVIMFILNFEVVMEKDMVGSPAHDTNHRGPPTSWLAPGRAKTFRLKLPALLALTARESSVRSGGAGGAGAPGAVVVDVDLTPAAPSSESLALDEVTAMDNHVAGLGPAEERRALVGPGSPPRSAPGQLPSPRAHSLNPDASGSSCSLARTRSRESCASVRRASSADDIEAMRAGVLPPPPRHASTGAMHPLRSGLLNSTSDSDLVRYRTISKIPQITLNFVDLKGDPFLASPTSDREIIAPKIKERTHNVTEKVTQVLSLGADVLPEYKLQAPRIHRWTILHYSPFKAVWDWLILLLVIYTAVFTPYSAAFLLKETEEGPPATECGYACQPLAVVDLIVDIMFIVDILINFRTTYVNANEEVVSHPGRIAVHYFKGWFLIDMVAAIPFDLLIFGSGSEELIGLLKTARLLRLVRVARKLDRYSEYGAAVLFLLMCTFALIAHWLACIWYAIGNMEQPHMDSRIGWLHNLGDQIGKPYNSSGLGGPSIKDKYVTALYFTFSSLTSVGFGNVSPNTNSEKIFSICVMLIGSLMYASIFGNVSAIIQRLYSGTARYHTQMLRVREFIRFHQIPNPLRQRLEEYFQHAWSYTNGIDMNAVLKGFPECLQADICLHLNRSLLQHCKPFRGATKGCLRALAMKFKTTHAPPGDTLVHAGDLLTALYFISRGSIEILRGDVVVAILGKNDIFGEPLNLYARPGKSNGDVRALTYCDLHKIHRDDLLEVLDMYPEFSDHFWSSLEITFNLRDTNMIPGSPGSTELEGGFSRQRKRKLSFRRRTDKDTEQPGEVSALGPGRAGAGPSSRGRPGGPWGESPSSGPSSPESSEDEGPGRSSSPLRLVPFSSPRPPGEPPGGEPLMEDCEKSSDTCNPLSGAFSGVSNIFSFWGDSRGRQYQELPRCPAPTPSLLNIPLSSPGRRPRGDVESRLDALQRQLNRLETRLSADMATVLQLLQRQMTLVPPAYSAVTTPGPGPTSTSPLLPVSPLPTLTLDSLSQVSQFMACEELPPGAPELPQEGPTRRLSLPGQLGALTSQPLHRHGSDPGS

Structure (SMILES) | hERG current change (%, negative = inhibition) at 1uM [%]
COc1ccccc1N1CCN(CCN2C(=O)CC(=C3c4ccccc4-c4ccccc43)C2=O)CC1.Cl | 2.87
CCCNC(=O)c1ccc2c(=O)c(O)c(-c3ccsc3)[nH]c2c1 | 4.96
CCn1c(SCC(=O)N2CCCCCC2)nc2c(c1=O)SCC2 | 9.44
O=C(c1ccco1)N1CCN(c2cc(=O)n(-c3ccc(Cl)cc3)c(=O)[nH]2)CC1 | 1.54
O=C(CCC(=O)Nc1ccc(F)cc1)N/N=C/c1ccccc1O | 10.9
Cc1ccc(C(=O)OC(C)C(=O)NCc2ccc3c(c2)OCO3)cc1S(=O)(=O)N1CCOCC1 (stereo not drawn) | 19.1
CC(OC(=O)c1ccc(Cl)c([N+](=O)[O-])c1)C(=O)N1CCN(Cc2ccccc2)CC1 (stereo not drawn) | -30.3
CC(NC(=O)c1ccccc1)C(=O)OCn1nnc2ccccc2c1=O (stereo not drawn) | 5.85
Cc1ccc(OC(=O)C2CSC3(C)CCC(=O)N23)c(Br)c1 (stereo not drawn) | -1.47
Cc1ccc(S(=O)(=O)N2CCCCC2)cc1NC(=O)Cn1ccsc1=N.Cl | -2.65
CCOc1ccc(N2C(=O)/C(=C/c3cccs3)N(C)C2=S)cc1 | 11.1
CCOC(=O)CCCNC(=O)COC(=O)/C=C/c1ccc2c(c1)OCO2 | 10.1
CCCCN(CC)C(=O)Cc1c(C(=O)O)[nH]c2ccc(Cl)cc12 | 7.28
COc1ccc(S(=O)(=O)N2CCN(c3ccc(F)cc3)CC2)cc1C(=O)N1CCCC1 | 5.33
COc1ccc(CCNC(=S)c2ccccc2)cc1OC | 7.2
O=C1C(Cl)=C(NCC2CCCO2)C(=O)N1Cc1ccccc1 (stereo not drawn) | 5.51
Cc1ccc(S(=O)(=O)N(OCc2ccccc2)C(C)C(=O)O)cc1 (stereo not drawn) | 12.2
CC1CCN(c2ccc(C(F)(F)F)cc2N)CC1 | 11
Cc1n[nH]c(=S)n(/N=C/c2ccccn2)c1=O | 11.6

Structure (SMILES) | hERG current change (%, negative = inhibition) at 1uM [%]
CCOc1ccccc1NC(=S)NNS(=O)(=O)c1c(C)cc(C)cc1C | 9.13
COC(=O)c1cccc(-n2cnnn2)c1 | 4.49
O=C(CSc1nnnn1-c1ccccc1)c1cc2ccccc2oc1=O | 9.85
CC(N)Cc1c[nH]c2ccc(OCc3cccs3)cc12.Cl (stereo not drawn) | -2.35
CCOC(=O)Cc1ncccc1C(=O)Nc1ccc(OC(F)(F)F)cc1 | 8.51
COc1ccc(OC)c(C2C(C(=O)c3cc4ccccc4o3)=C(O)C(=O)N2c2cc(C)on2)c1 (stereo not drawn) | 8.37
Cl.O=C(COc1ccccc1CNCc1ccccc1)Nc1ccccc1 | 10.2
CNc1snc(C)c1C(=O)OCC(=O)c1cc(F)ccc1OC | 4.98
COc1ccc(N2CCN(C(=S)NC(C)c3ccccc3)CC2)cc1 (stereo not drawn) | 13.3
COC(=O)c1ccc2c(c1)C(=O)/C(=C/c1ccc(C)cc1)O2 | -3.76
CC(OC(=O)c1cn(C)c2ccccc12)C(=O)N1CCCC1 (stereo not drawn) | 9.65
CC(C)NC(=S)N1CCn2c(nc3ccccc32)C1 | 17.6
COc1ccc(C(CNC(=O)c2cc(S(=O)(=O)NCc3ccccc3)ccc2C)N2CCOCC2)cc1 (stereo not drawn) | -5.4
Cc1cc(C(=O)Nc2ccccc2N2CCOCC2)ccc1[N+](=O)[O-] | 4.18
COCc1cc(Sc2ccc(Cl)cc2)nc(-c2ccccc2)n1 | -1.26
COc1ccc(C2CC(c3cccc(OC)c3)n3nc(N)nc3N2)cc1 (stereo not drawn) | -1.29
COc1cc(C=O)ccc1OC(=O)Nc1ccccc1 | 7.65
Cc1ccc(C)c(Nc2cc(C)nc3ncnn23)c1 | 5.24
CCOC(=O)Cn1c(-c2cccnc2)nc(-c2ccccc2)c1-c1ccccc1 | 4.57

Structure (SMILES) | hERG current change (%, negative = inhibition) at 1uM [%]
CC(=O)c1sc(N)nc1C | 13.9
Cc1cc(OCCCC(=O)Nc2cccc(-n3cnnn3)c2)ccc1Cl | 18.3
CC(C)CCC(C(=O)O)C(C)CC(=O)NNC(=O)c1ccco1 (stereo not drawn) | 2.9
CCC(NC(=O)C(C)NC)C(=O)N1CCCC1C(=O)NC1CCCc2ccccc21.O=CO (stereo not drawn) | 14.7
COc1ccc(OC)c(CCNC(=O)Cn2cccc2C(=O)c2ccccc2)c1 | 6.75
CCc1ccc(C(=O)Cn2cnc3cc([N+](=O)[O-])ccc3c2=O)cc1 | 2.52
CCOC(=O)CSc1nc2cc3c(cc2cc1C#N)OCCO3 | 12.2
CCOC(=O)Cn1nc(-c2ccc(C)cc2)c2ccccc2c1=O | 12.8
COc1cccc(CN2CCCC(C(=O)Nc3ccc(-c4cscn4)cc3)C2)c1 (stereo not drawn) | -10.8
Cc1cccc(/C=N/Nc2cc(N3CCOCC3)nc(N3CCOCC3)n2)c1 | 9.7
NNC(=O)c1n[nH]c(=O)c2ccccc12 | 8.26
CC1CCN(C2=NC(=O)/C(=C/c3ccc(O)cc3)S2)CC1 | -18.2
O=C(CSc1nnnn1-c1ccc(C(=O)O)cc1)NC1CC1 | -7.78
CCOc1ccc(N(CC(=O)NCCSCc2ccco2)S(=O)(=O)c2ccc(C)cc2)cc1 | 9.21
Cc1cc(Cl)cc(C)c1OCCNCc1ccccc1.O=C(O)C(=O)O | 9.5
O=C(O)Cn1nc(C(F)(F)F)c2c1CCCCC2 | -10.1
CC(C)(C)c1ccc(OCc2ccc(C(=O)N/N=C/c3ccc([N+](=O)[O-])cc3)o2)cc1 | 8.39
CC1CN(S(=O)(=O)c2cccc(C(F)(F)F)c2)C(C)N1C(=O)N1CCOCC1 (stereo not drawn) | 16.7
COc1ccc(-c2nnn(CC(=O)N(CCN3CCOCC3)C(C(=O)NC3CCCCC3)c3ccco3)n2)cc1 (stereo not drawn) | 7.48
